Experimental findings from the supplement of paper PMC12217912 are described below.

B1: TEV protease; numbered along this chain (parent)
chain: MGESLFKGPRDYNPISSSICHLTNESDGHTTSLYGIGFGPFIITNKHLFRRNNGTLVVQSLHGVFKVKDTTTLQQHLVDGRDMIIIRMPKDFPPFPQKLKFREPQREERICLVTTNFQTKSMSSMVSDTSCTFPSGDGIFWKHWIQTKDGQCGSPLVSTRDGFIVGIHSASNFTNTNNYFTSVPKNFMELLTNQEAQQWVSGWRLNADSVLWGGHKVFMVKPEEPFQPVKEATQL

The variants in the test derive from B1. In words: raw area under fraction-flipped curve 0-4 h after induction (AUC4h, not background-subtracted), DNA-recorder readout of cleavage of the substrate (dimensionless); higher = more cleavage of the substrate by the protease variant. Particulars: temperature: 34 °C; time window: 0-4 h after rhamnose induction. As to the method: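 In vivo DNA recorder in E. coli TOP10(DE3) ΔrhaA at 34 °C. Each TEVp single-site mutant (parent TEVp 0) is paired with a single-site variant of the 7-mer TEVs (canonical ENLYFQ|S). The substrate sits between flexible linkers in a Bxb1-sfGFP-TEVs-SsrA fusion, so cleavage stabilises Bxb1 and speeds flipping of a recombination array, read by NGS. The value is the raw area under the fraction-flipped curve over 0-4 h after rhamnose induction (AUC4h), with ≥20 reads per time point. It is not background-subtracted; inactive controls average about 0.047.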

The other results are listed elsewhere or left out. Sequences were assembled here from the parent chain. Inactive controls read about 0.05.
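Further: Bxb1 expression induced with 0.2% (w/v) L-rhamnose at OD600 near 0.5, cultures sampled hourly, flipped fraction per protease–substrate barcode pair counted by paired-end Illumina sequencing.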

As for MGESLFKGPRDYNPISSSICHLTNESDGHTTSLYGIGFGPFIITNKHLFRRNNGTLVVQSLHGVFKVKDTTTLQQHLVDGRDMIIIRMPKDFPPFPQKLIFREPQREERICLVTTNFQTKSMSSMVSDTSCTFPSGDGIFWKHWIQTKDGQCGSPLVSTRDGFIVGIHSASNFTNTNNYFTSVPKNFMELLTNQEAQQWVSGWRLNADSVLWGGHKVFMVKPEEPFQPVKEATQL [K100I], the “area with substrate ENLYFAS” value was 0.0673, the “area with substrate ENLYFFS” value was found to be 0.0652, the “area with substrate ENLYFHS” value worked out at 0.059 and the “area with substrate ENLYFIS” value worked out at 0.0542. Also, the “area with substrate ENLYFKS” value stood at 0.0692, the “area with substrate ENLYFNS” value turned out to be 0.0499, the “area with substrate ENLYFPS” value was found to be 0.0702 and the “area with substrate ENLYFSS” value worked out at 0.0615. Moreover, the “area with substrate ENLYFTS” value worked out at 0.0578 and the “area with substrate ENLYFWS” value is 0.0595.

As to MGESLFKGPRDYNPISSSICHLTNESDGHTTSLYGIGFGPFIITNKHLFRRNNGTLVVQSLHGVFKVKDTTTLQQHLVDGRDMIIIRMPKDFPPFPQKLKFREPQREMRICLVTTNFQTKSMSSMVSDTSCTFPSGDGIFWKHWIQTKDGQCGSPLVSTRDGFIVGIHSASNFTNTNNYFTSVPKNFMELLTNQEAQQWVSGWRLNADSVLWGGHKVFMVKPEEPFQPVKEATQL [E108M], the “area with substrate ENLYFAS” value was determined as 0.0583, the “area with substrate ENLYFDS” value is 0.0423, the “area with substrate ENLYFFS” value was 0.0666 and the “area with substrate ENLYFGS” value was determined as 0.0564. Further, the “area with substrate ENLYFHS” value was 0.0598, the “area with substrate ENLYFIS” value was found to be 0.0606, the “area with substrate ENLYFKS” value was found to be 0.0509 and the “area with substrate ENLYFLS” value is 0.0529. Also, the “area with substrate ENLYFMS” value came out at 0.0619, the “area with substrate ENLYFRS” value worked out at 0.0553, the “area with substrate ENLYFSS” value is 0.0386 and the “area with substrate ENLYFWS” value came to 0.0368. Moreover, the “area with substrate ENLYFYS” value amounted to 0.0679.

Regarding MGESLFKGPRDYNPISSSICHLTNESDGHTTSLYGIGFGPFIITNKHLFRRNNGTLVVQSLHGVFKVKDTTTLQQHLVDGRDMIIIRMPKDFPPFPQKLKFREPQREDRICLVTTNFQTKSMSSMVSDTSCTFPSGDGIFWKHWIQTKDGQCGSPLVSTRDGFIVGIHSASNFTNTNNYFTSVPKNFMELLTNQEAQQWVSGWRLNADSVLWGGHKVFMVKPEEPFQPVKEATQL [E108D], the “area with substrate ENLYFAS” value is 0.0522, the “area with substrate ENLYFES” value came out at 0.0711, the “area with substrate ENLYFHS” value came out at 0.0612 and the “area with substrate ENLYFIS” value was determined as 0.0721. For the same variant, the “area with substrate ENLYFKS” value was found to be 0.0659, the “area with substrate ENLYFMS” value was 0.0539, the “area with substrate ENLYFNS” value is 0.0642 and the “area with substrate ENLYFPS” value turned out to be 0.0645. The “area with substrate ENLYFRS” value was 0.0506, the “area with substrate ENLYFSS” value came out at 0.0583, the “area with substrate ENLYFTS” value was 0.0651 and the “area with substrate ENLYFWS” value worked out at 0.0681. Besides, the “area with substrate ENLYFYS” value turned out to be 0.0524.

MGESLFKGPRDYNPISSSICHLTNESDGHTTSLYGIGFGPFIITNKHLFRRNNGTLVVQSLHGVFKVKDTTTLQQHLVDGRDMIIIRMPKDFPPFPQKLKFREPQREEEICLVTTNFQTKSMSSMVSDTSCTFPSGDGIFWKHWIQTKDGQCGSPLVSTRDGFIVGIHSASNFTNTNNYFTSVPKNFMELLTNQEAQQWVSGWRLNADSVLWGGHKVFMVKPEEPFQPVKEATQL [R109E]: the “area with substrate ENLYFAS” value amounted to 0.0633, the “area with substrate ENLYFCS” value came out at 0.0634, the “area with substrate ENLYFES” value was determined as 0.0593 and the “area with substrate ENLYFFS” value was 0.0529. In addition, the “area with substrate ENLYFHS” value is 0.0728, the “area with substrate ENLYFIS” value was 0.0726, the “area with substrate ENLYFMS” value was found to be 0.0642 and the “area with substrate ENLYFPS” value came out at 0.0671. In addition, the “area with substrate ENLYFSS” value worked out at 0.0595, the “area with substrate ENLYFVS” value came to 0.0481 and the “area with substrate ENLYFWS” value was 0.0572.

For MGESLFKGPRDYNPISSSICHLTNESDGHTTSLYGIGFGPFIITNKHLFRRNNGTLVVQSLHGVFKVKDTTTLQQHLVDGRDMIIIRMPKDFPPFPQKLKFRVPQREERICLVTTNFQTKSMSSMVSDTSCTFPSGDGIFWKHWIQTKDGQCGSPLVSTRDGFIVGIHSASNFTNTNNYFTSVPKNFMELLTNQEAQQWVSGWRLNADSVLWGGHKVFMVKPEEPFQPVKEATQL [E103V], the “area with substrate ENLYFAS” value is 0.0471, the “area with substrate ENLYFCS” value stood at 0.0591, the “area with substrate ENLYFFS” value is 0.0635 and the “area with substrate ENLYFGS” value was found to be 0.0548. The “area with substrate ENLYFHS” value came to 0.0583, the “area with substrate ENLYFIS” value is 0.0617, the “area with substrate ENLYFMS” value is 0.0652 and the “area with substrate ENLYFNS” value came out at 0.0725. Besides, the “area with substrate ENLYFPS” value came to 0.0677, the “area with substrate ENLYFRS” value was found to be 0.0646, the “area with substrate ENLYFTS” value came out at 0.0678 and the “area with substrate ENLYFVS” value was 0.0573. Moreover, the “area with substrate ENLYFWS” value worked out at 0.0651.

On to MGESLFKGPRDYNPISSSICHLTNESDGHTTSLYGIGFGPFIITNKHLFRRNNGTLVVQSLHGVFKVKDTTTLQQHLVDGRDMIIIRMPKDFPPFPQKLKFRHPQREERICLVTTNFQTKSMSSMVSDTSCTFPSGDGIFWKHWIQTKDGQCGSPLVSTRDGFIVGIHSASNFTNTNNYFTSVPKNFMELLTNQEAQQWVSGWRLNADSVLWGGHKVFMVKPEEPFQPVKEATQL [E103H], for which the “area with substrate ENLYFAS” value was 0.0427, the “area with substrate ENLYFCS” value was determined as 0.0873, the “area with substrate ENLYFDS” value is 0.0594 and the “area with substrate ENLYFES” value was 0.0643. Moreover, the “area with substrate ENLYFFS” value stood at 0.0448, the “area with substrate ENLYFGS” value was 0.0616, the “area with substrate ENLYFIS” value was determined as 0.0659 and the “area with substrate ENLYFLS” value is 0.0619. The “area with substrate ENLYFPS” value came out at 0.0558, the “area with substrate ENLYFSS” value came to 0.0595, the “area with substrate ENLYFTS” value was determined as 0.054 and the “area with substrate ENLYFWS” value was 0.0525. Further, the “area with substrate ENLYFYS” value came out at 0.0477.

For MGESLFKGPRDYNPISSSICHLTNESDGHTTSLYGIGFGPFIITNKHLFRRNNGTLVVQSLHGVFKVKDTTTLQQHLVDGRDMIIIRMPKDFPPFPQKLKFREPQTEERICLVTTNFQTKSMSSMVSDTSCTFPSGDGIFWKHWIQTKDGQCGSPLVSTRDGFIVGIHSASNFTNTNNYFTSVPKNFMELLTNQEAQQWVSGWRLNADSVLWGGHKVFMVKPEEPFQPVKEATQL [R106T], the “area with substrate ENLYFAS” value worked out at 0.0672, the “area with substrate ENLYFES” value worked out at 0.0677, the “area with substrate ENLYFGS” value came to 0.0838 and the “area with substrate ENLYFIS” value was 0.0601. For the same variant, the “area with substrate ENLYFKS” value was found to be 0.0672, the “area with substrate ENLYFLS” value was 0.056, the “area with substrate ENLYFMS” value was 0.068 and the “area with substrate ENLYFNS” value stood at 0.0827. The “area with substrate ENLYFPS” value was 0.0618, the “area with substrate ENLYFSS” value amounted to 0.0696, the “area with substrate ENLYFTS” value was determined as 0.0737 and the “area with substrate ENLYFVS” value was found to be 0.0591. The “area with substrate ENLYFWS” value is 0.0468 and the “area with substrate ENLYFYS” value amounted to 0.0712.

As for MGESLFKGPRDYNPISSSICHLTNESDGHTTSLYGIGFGPFIITNKHLFRRNNGTLVVQSLHGVFKVKDTTTLQQHLVDGRDMIIIRMPKDFPPFPQKLKFREPQRGERICLVTTNFQTKSMSSMVSDTSCTFPSGDGIFWKHWIQTKDGQCGSPLVSTRDGFIVGIHSASNFTNTNNYFTSVPKNFMELLTNQEAQQWVSGWRLNADSVLWGGHKVFMVKPEEPFQPVKEATQL [E107G], the “area with substrate ENLYFAS” value amounted to 0.0535, the “area with substrate ENLYFDS” value turned out to be 0.0749, the “area with substrate ENLYFES” value turned out to be 0.0563 and the “area with substrate ENLYFGS” value stood at 0.0501. Moreover, the “area with substrate ENLYFIS” value was 0.0505, the “area with substrate ENLYFKS” value amounted to 0.064, the “area with substrate ENLYFMS” value turned out to be 0.0564 and the “area with substrate ENLYFNS” value turned out to be 0.0674. Further, the “area with substrate ENLYFSS” value came to 0.0503, the “area with substrate ENLYFVS” value is 0.0429 and the “area with substrate ENLYFWS” value came out at 0.0506.

With MGESLFKGPRDYNPISSSICHLTNESDGHTTSLYGIGFGPFIITNKHLFRRNNGTLVVQSLHGVFKVKDTTTLQQHLVDGRDMIIIRMPKDFPPFPQKLKFREPEREERICLVTTNFQTKSMSSMVSDTSCTFPSGDGIFWKHWIQTKDGQCGSPLVSTRDGFIVGIHSASNFTNTNNYFTSVPKNFMELLTNQEAQQWVSGWRLNADSVLWGGHKVFMVKPEEPFQPVKEATQL [Q105E], the “area with substrate ENLYFAS” value is 0.0495, the “area with substrate ENLYFCS” value was determined as 0.0578, the “area with substrate ENLYFDS” value turned out to be 0.0391 and the “area with substrate ENLYFES” value was found to be 0.0645. Moreover, the “area with substrate ENLYFFS” value amounted to 0.078, the “area with substrate ENLYFGS” value came to 0.0503, the “area with substrate ENLYFIS” value worked out at 0.0597 and the “area with substrate ENLYFMS” value was determined as 0.0613. Further, the “area with substrate ENLYFPS” value came to 0.0551, the “area with substrate ENLYFSS” value amounted to 0.0518, the “area with substrate ENLYFTS” value turned out to be 0.0682 and the “area with substrate ENLYFWS” value was 0.0766. For the same variant, the “area with substrate ENLYFYS” value is 0.0593.
